According to PubChem BioAssay AID1476 (National Center for Advancing Translational Sciences (NCATS), 2009):
The campaign covered roughly 200,000 compounds. About 4,500 (2.2%) were called active. The inconclusive results got no clear call from the source; some entries with a clear call stand among them for comparison. The call rests on the fitted dose curve; in most records, active means well fitted inhibition curve with a large enough effect; inconclusive means small, poorly fitted or top-dose-only effect, or effect the other way; inactive means flat fitted curve, though single readings scatter. Potencies beside an inconclusive call are fits to weak or partial responses and may not hold up.
Further: nearly all actives have a fitted effect of over 40% in size.
Potency means the concentration at half of the fitted maximal effect; tags describe the fitted curve by direction and shape.
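Wherever max response, negative = inhibition is given: plate controls were enzyme without inhibitor for no effect and buffer without enzyme for full effect.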

What follows are compounds tested against Cruzipain (Trypanosoma cruzi) (UniProt P25779) (assay: qHTS Assay for Promiscuous and Specific Inhibitors of Cruzain (without detergent)). Settings: purified cruzain, Z-FR-AMC fluorescence, no detergent.
Chain of UniProt P25779 (P25779 whole entry, looked up): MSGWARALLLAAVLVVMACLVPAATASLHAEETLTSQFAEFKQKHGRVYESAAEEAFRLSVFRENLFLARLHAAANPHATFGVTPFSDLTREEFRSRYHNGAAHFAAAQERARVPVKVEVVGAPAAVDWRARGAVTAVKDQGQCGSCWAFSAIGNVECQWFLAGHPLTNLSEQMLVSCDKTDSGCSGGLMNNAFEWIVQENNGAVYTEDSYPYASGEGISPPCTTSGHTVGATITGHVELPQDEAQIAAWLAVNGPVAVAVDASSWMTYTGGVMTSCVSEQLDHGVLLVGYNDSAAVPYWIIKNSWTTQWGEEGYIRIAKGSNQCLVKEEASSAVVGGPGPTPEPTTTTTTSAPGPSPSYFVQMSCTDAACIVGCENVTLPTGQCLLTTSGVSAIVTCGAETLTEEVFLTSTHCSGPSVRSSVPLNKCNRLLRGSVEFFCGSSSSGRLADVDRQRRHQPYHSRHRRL
Procedure, shortened: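 Purified cruzain at 1.5 nM, pre-incubated 15 min with compound at room temperature in 100 mM sodium acetate pH 5.5, 5 mM DTT, 0.00005% Triton X-100. Reaction started with 2 uM Z-FR-AMC; AMC fluorescence increase over 60 s gives rate.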
`O=C(CNc1ccccc1)N/N=C/c1cn(-c2ccccc2)nc1-c1ccccc1` was tested, and the Potency was active: 25.1 µM.
`Cc1ccc(C)c(N(C)C(=O)C2CCN(S(=O)(=O)c3cccc4nsnc34)CC2)c1` was tested, and the max response, negative = inhibition was inactive: 4.98%.
`CCN1c2ccccc2-c2nc(SCC(=O)Nc3ccc(C)c(Cl)c3)ncc2S1(=O)=O` was tested, and the Potency was inconclusive: 39.8 µM [inhibitor, single point].
In the case of `COc1ccc(-c2nc(NC(=O)c3ccc(OCC(=O)N4CCOCC4)c(OC)c3)sc2C)cc1`, the Potency was inconclusive: 31.6 µM [activator, single point].
For `Cc1noc(-c2ccccc2OCC(=O)Nc2cccc([N+](=O)[O-])c2)n1`, the Potency was inconclusive: 31.6 µM [activator, single point].
With `CCOC(=O)c1c(C2CC2)csc1NC(=O)COC(=O)c1ccc[n+]([O-])c1` the Potency was inconclusive: 39.8 µM [activator, single point].
In the case of `CCc1ccc(CNC(=O)c2ccc(CSc3nc4ccncc4n3Cc3ccccc3)cc2)cc1`, the Potency was inconclusive: 6.31 µM [inhibitor, partial curve].
`CCCCC(CC)COC(=O)C(C#N)=C(c1ccccc1)c1ccccc1` (stereo not drawn) was tested, and the Potency was inconclusive: 35.5 µM [inhibitor, single point].
In the case of `O=C(Nc1ccccc1N1CCN(C(=O)c2ccccc2)CC1)c1cc2ccccc2o1`, the Potency was active: 0.158 µM.
With `Cc1ccc(/C=c2\sc3nc(-c4cccnc4)nn3c2=O)cc1` the Potency was inconclusive: 39.8 µM [activator, single point].
For `Cc1ccc(NC(=O)c2cc(S(=O)(=O)N3CCOCC3)c(Cl)cc2Cl)cc1`, the max response, negative = inhibition was inactive: 1.96%.
`Clc1cccc(/C=N/Nc2nnc(Cl)c3ccccc23)c1` was tested, and the Potency was inconclusive: 31.6 µM [inhibitor, single point].
For `COC(=O)/C=C/C(=O)N1CCN(c2ccccc2C)CC1`, the max response, negative = inhibition was inactive: 1%.
With `Clc1ccccc1-c1nc(Nc2ccccc2)nc2ccc(Br)cc12` the Potency was active: 25.1 µM.
In the case of `Cc1ccc(NC(=O)N2CCC(n3c(C)nc4cccnc43)CC2)c(Cl)c1`, the max response, negative = inhibition was inactive: 1.95%.
In the case of `Cc1cc(C(=O)Cn2nc(C(=O)O)c3ccccc3c2=O)c(C)n1-c1ccc(F)cc1`, the Potency was active: 25.1 µM.
In the case of `CCc1nnc(NC(=O)c2ccc3c(c2)C(=O)N(CC(C)C)C3=O)s1`, the Potency was inconclusive: 25.1 µM [inhibitor, single point].
For `COc1cc(SC#N)ccc1N=Cc1c(C)[nH]n(-c2ccc(Cl)cc2)c1=O`, the Potency was active: 20 µM.
For `CCOC(=O)Cn1c(CN2CCN(C(c3ccccc3)c3ccccc3)CC2)nc2c1c(=O)n(C)c(=O)n2C`, the Potency was inconclusive: 39.8 µM [activator, single point].
In the case of `Cc1cccc(-c2noc(C3CC(=O)N(c4ccc5c(c4)OCCO5)C3)n2)c1` (stereo not drawn), the max response, negative = inhibition was inactive: 13.7%.
With `O=c1c(-c2cc(F)cc(F)c2)nc2cnc(N3CCOCC3)nc2n1-c1ccccc1` the max response, negative = inhibition was inactive: -3.12%.
For `CCCCc1noc2c1/C(=N\O)CC(c1ccccc1)C2` (stereo not drawn), the Potency was inconclusive: 31.6 µM [inhibitor, single point].
In the case of `COc1ccc(-c2nc(SCC(=O)NCCCc3ccccc3)n[nH]2)cc1`, the max response, negative = inhibition was inactive: 7.18%.
With `O=C(Nc1nccs1)c1cc(-c2ccccc2)nc2ccccc12` the Potency was inconclusive: 25.1 µM [inhibitor, single point].
For `C/C(=N/NC(=O)CSCc1ccc(Cl)cc1)c1cccc(NC(=O)c2ccccc2)c1`, the Potency was inconclusive: 31.6 µM [inhibitor, single point].
For `CCC(=O)N1CCc2cc(Br)cc(S(=O)(=O)CCC(=O)Nc3ccccc3C)c21`, the max response, negative = inhibition was inactive: -1.12%.
With `Cc1c(C(=O)N2CCC3(CC2)OCCO3)oc2ccc(S(=O)(=O)N3CCCCC3)cc12` the Potency was inconclusive: 39.8 µM [activator, single point].
In the case of `Cc1ccc(CN2CCN(C3CCN(C(=O)OC(C)(C)C)CC3)C(=O)C2=O)cc1`, the max response, negative = inhibition was inactive: 14.9%.
For `COC(=O)c1ccc(NC(=O)CN(c2ccc(C)cc2)S(=O)(=O)c2c(C)n[nH]c2C)cc1`, the Potency was inconclusive: 39.8 µM [activator, single point].
With `COc1cc2c(cc1NC(=O)COc1ccc3ccccc3c1)oc1ccccc12` the Potency was active: 10 µM.
With `CCCNC(=O)Nc1cc(C(=O)NCc2cccc(OCC)c2)ccc1N1CCCC1` the max response, negative = inhibition was inactive: 10.4%.
With `CC1(C(=O)NCCCNc2ncc(C(F)(F)F)cc2Cl)C=CC2(CCCCC2)N1C(=O)c1ccccc1` (stereo not drawn) the Potency was inconclusive: 12.6 µM [activator, partial curve].
In the case of `Cc1ccc(C)c(N2CCN(C(=O)CN3C(=O)CSc4c3c(C)nn4-c3ccccc3)CC2)c1`, the max response, negative = inhibition was inactive: -8.1%.
`COc1ccc(CN2CCNCC2)c(OC)c1OC` was tested, and the max response, negative = inhibition was inactive: -4.29%.
For `COC(=O)c1ccccc1NC(=O)c1ccc(-c2cccc(Cl)c2)o1`, the Potency was inconclusive: 5.01 µM [inhibitor, single point].
In the case of `CC(C)(C)NC(=O)C(c1c[nH]c2ccccc12)N(C(=O)Cn1nnc(-c2ccc(Cl)cc2)n1)c1ccccc1F` (stereo not drawn), the Potency was inconclusive: 39.8 µM [inhibitor, single point].
For `CCN1C/C(=C/c2ccc(N3CCOCC3)cc2)C(=O)/C(=C/c2ccc(N3CCOCC3)cc2)C1`, the Potency was inconclusive: 12.6 µM [activator, partial curve].
`FC(F)(F)c1ccc(CN2C[C@@H]3C(c4ccccc4)C4(c5ccccc5)CC3(C4)[C@H]2c2ccccc2)cc1` (stereo partly drawn) was tested, and the Potency was inconclusive: 10 µM [inhibitor, partial curve].
With `COc1ccc(-c2cc(C(F)(F)F)nc(N3CCOCC3)n2)cc1OC` the Potency was inconclusive: 31.6 µM [activator, partial curve].
For `COCCNC(=O)c1ccc2c(c1)N(Cc1cccc(Cl)c1)C(=O)c1ccccc1S2=O` (stereo not drawn), the max response, negative = inhibition was inactive: 12.2%.
`COc1cc(OC)cc(C(=O)NC(=S)Nc2cc3oc4ccccc4c3cc2OC)c1` was tested, and the Potency was active: 3.98 µM.
For `O=C1OCCN1C(=O)[C@H]1[C@H](c2ccccc2)C(c2ccccc2)=NN1c1ccc(Br)cc1`, the Potency was active: 20 µM.
With `CCOc1ccccc1NS(=O)(=O)c1c(-c2ccc(C)cc2)csc1C(=O)OC` the Potency was inconclusive: 39.8 µM [inhibitor, single point].
With `O=C(N/N=C/c1c(O)n(CCC2=CCCCC2)c(=O)[nH]c1=O)c1ccccc1` the Potency was active: 25.1 µM.
For `CC(C)(C)C1CCc2onc(C(=O)Nc3sc4c(c3C(N)=O)CCCC4)c2C1` (stereo not drawn), the max response, negative = inhibition was inactive: -3.62%.
`NC(=O)c1cc(S(=O)(=O)NCC2CCC(C(=O)Nc3cccc(Cl)c3)CC2)cs1` (stereo not drawn) was tested, and the max response, negative = inhibition was inactive: 6.75%.
`Cc1ccc(C)c(N2CCN(C(=O)CCNC(=O)Cn3ccc4ccccc4c3=O)CC2)c1` was tested, and the Potency was inconclusive: 31.6 µM [activator, partial curve].
In the case of `O=C(Nc1ccc2c(c1)OCO2)Nc1ccc(Cl)cc1Cl`, the Potency was active: 25.1 µM.
In the case of `COc1cc(/C=N/Nc2ccc(Cl)cc2)ccc1OC(=O)c1cccs1`, the Potency was active: 7.94 µM.
With `COc1ccc2c(c1)c(CCN1CCOCC1)c(C)n2C(=O)c1cccc(Cl)c1Cl` the Potency was inconclusive: 31.6 µM [activator, single point].
For `O=C(/C=C/c1ccco1)Nc1ccc2nn(-c3ccccc3)nc2c1`, the Potency was inconclusive: 39.8 µM [inhibitor, single point].
`O=C(Cc1ccc(F)cc1)N1CCC(c2nc3c(nnn3Cc3ccc(Cl)cc3)c(=O)[nH]2)CC1` was tested, and the Potency was inconclusive: 31.6 µM [activator, single point].
With `COc1ccccc1S(=O)(=O)Cc1ccc(C(=O)N2CCN(c3ccc(C)cc3)C(C)C2)o1` (stereo not drawn) the Potency was inconclusive: 31.6 µM [activator, partial curve].
`Cc1ccc2nc(NC(=S)NC(=O)c3ccc(OC(C)C)cc3)sc2c1` was tested, and the Potency was inconclusive: 31.6 µM [inhibitor, single point].
`Cc1ccc(N2CC(C(=O)N3CCc4ccccc43)CC2=O)cc1` (stereo not drawn) was tested, and the Potency was inconclusive: 39.8 µM [inhibitor, single point].
In the case of `CC1CCN(S(=O)(=O)c2ccc(NC(=S)NC(=O)c3ccc(Cl)cc3)cc2)CC1`, the Potency was inconclusive: 39.8 µM [inhibitor, single point].
For `O=c1cnc2cnc(Nc3ccccc3)nc2n1Cc1ccc(F)cc1`, the Potency was active: 20 µM.
For `O=S(=O)(c1ccccc1)N1CCC2(CCCN(c3ccccc3)C2)CC1`, the max response, negative = inhibition was inactive: 2.44%.
With `Cc1cccc(CNC(=O)c2cnc3sc(N4CCCCC4)nn3c2=O)c1` the max response, negative = inhibition was inactive: 13.2%.
`COc1nc(-c2cccs2)cc(-c2ccc(C)cc2)c1C#N` was tested, and the Potency was inconclusive: 39.8 µM [inhibitor, single point].
With `COc1ccc(C)cc1NC(=O)C(=O)NCCc1csc(-c2ccc(C)cc2)n1` the max response, negative = inhibition was inactive: -11.4%.
For `Cc1cccc(NC(=O)C(=O)NCC(c2cccnc2)N2CCOCC2)c1` (stereo not drawn), the max response, negative = inhibition was inactive: 24.8%.
For `CCCOc1ccc(C2c3c(-c4ccccc4O)n[nH]c3C(=O)N2Cc2ccncc2)cc1OCC` (stereo not drawn), the Potency was inconclusive: 39.8 µM [activator, single point].
For `COc1cccc(-c2nn(C)c3sc(C(=O)NCc4ccc5c(c4)OCO5)cc23)c1`, the Potency was inconclusive: 39.8 µM [inhibitor, single point].
`Cc1nc2c(-c3ccccc3)c(C)nn2c(C)c1CCC(=O)NCc1cccc(Cl)c1` was tested, and the max response, negative = inhibition was inactive: 0.848%.
For `CCc1ccccc1NC(=O)c1cc(S(=O)(=O)NCCc2ccc(OC)c(OC)c2)ccc1F`, the max response, negative = inhibition was inactive: 18.5%.
For `CC(=O)Nc1c(C)nn(-c2ccccc2)c1N1CCC(C(=O)Nc2cc(Cl)ccc2C)CC1`, the max response, negative = inhibition was inactive: -5.38%.
With `Cc1coc(C)c1C(=O)CC1(O)C(=O)N(CCc2ccccc2)c2ccccc21` (stereo not drawn) the Potency was inconclusive: 31.6 µM [activator, single point].
